{
  "source": "paper PMC4336329",
  "about": "(PLoS ONE, 2015)",
  "note": "The campaign covered roughly 310,000 compounds. About 14,000 (4.5%) showed an effect of 50% or more. The effect is printed as a negative number. The list shows a part of the results.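 Also: peak tail current of the secondary pulse compared with the same well before compound.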",
  "data": [
    {"biological_target": "human ether-à-go-go-related gene (hERG) potassium channel (human, UniProt Q12809)", "sequence (Q12809 whole entry, looked up)": "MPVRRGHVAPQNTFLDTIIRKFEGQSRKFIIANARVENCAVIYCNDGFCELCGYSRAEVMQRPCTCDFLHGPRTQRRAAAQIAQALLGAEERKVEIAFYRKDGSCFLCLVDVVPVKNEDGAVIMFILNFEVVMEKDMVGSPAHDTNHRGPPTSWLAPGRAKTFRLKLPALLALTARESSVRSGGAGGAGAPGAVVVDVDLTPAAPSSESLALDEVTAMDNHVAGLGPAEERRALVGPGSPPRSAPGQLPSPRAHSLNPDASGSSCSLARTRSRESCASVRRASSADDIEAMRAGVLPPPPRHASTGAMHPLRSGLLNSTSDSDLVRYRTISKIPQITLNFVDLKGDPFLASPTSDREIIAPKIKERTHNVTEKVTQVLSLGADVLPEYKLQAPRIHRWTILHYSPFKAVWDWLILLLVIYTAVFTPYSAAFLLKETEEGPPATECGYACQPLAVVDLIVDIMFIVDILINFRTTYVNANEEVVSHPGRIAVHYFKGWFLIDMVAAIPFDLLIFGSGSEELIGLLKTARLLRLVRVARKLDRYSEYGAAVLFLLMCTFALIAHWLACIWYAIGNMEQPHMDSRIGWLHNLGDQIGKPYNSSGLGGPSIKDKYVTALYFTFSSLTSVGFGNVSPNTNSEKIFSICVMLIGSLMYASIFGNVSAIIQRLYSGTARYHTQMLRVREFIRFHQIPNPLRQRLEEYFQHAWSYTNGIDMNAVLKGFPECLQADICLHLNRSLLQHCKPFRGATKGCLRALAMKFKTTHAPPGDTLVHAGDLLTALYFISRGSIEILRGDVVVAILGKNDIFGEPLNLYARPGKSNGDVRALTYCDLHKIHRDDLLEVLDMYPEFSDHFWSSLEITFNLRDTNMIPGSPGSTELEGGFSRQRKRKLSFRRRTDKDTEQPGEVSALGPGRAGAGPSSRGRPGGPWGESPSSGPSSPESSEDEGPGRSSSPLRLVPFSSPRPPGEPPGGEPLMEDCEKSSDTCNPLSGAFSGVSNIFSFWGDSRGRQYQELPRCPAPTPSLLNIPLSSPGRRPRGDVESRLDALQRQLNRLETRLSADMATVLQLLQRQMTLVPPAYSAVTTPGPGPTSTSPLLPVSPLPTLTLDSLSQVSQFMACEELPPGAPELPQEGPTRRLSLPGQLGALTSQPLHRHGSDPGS", "test": "primary screen, population patch clamp on CHO cells stably expressing hERG", "units": {"hERG current change (%, negative = inhibition) at 10uM": "%"}, "values": [
      {"smiles": "COC(=O)c1nc(-c2ccccc2)oc1N(C)C", "hERG current change (%, negative = inhibition) at 10uM": 2.84},
      {"smiles": "CC1(c2ccccc2)NC(=O)N(CC(=O)NCC2CCCO2)C1=O", "note": "(centres unmarked)", "hERG current change (%, negative = inhibition) at 10uM": -0.048},
      {"smiles": "CCc1nnc(NC(=O)CN2CCN(Cc3ccccc3C)CC2)s1", "hERG current change (%, negative = inhibition) at 10uM": 13.3},
      {"smiles": "Cc1cc(NC(=O)c2cccs2)n(-c2nc3ccccc3[nH]2)n1", "hERG current change (%, negative = inhibition) at 10uM": 20.6},
      {"smiles": "COc1ccc(OC(=O)N(C)C)c(CN(C)C)c1.Cl", "hERG current change (%, negative = inhibition) at 10uM": 21.1},
      {"smiles": "CCOc1ccccc1COC(=O)c1cccc(-n2cnnn2)c1", "hERG current change (%, negative = inhibition) at 10uM": -4.28},
      {"smiles": "Cc1ccc(NC(=O)COC(=O)CCC(=O)c2ccc(Cl)cc2)cc1S(=O)(=O)N(C)C", "hERG current change (%, negative = inhibition) at 10uM": -1.5},
      {"smiles": "COc1cccc(Nc2nc3ccccc3nc2NS(=O)(=O)c2cccs2)c1", "hERG current change (%, negative = inhibition) at 10uM": 13.5},
      {"smiles": "CC(=O)NC(=S)Nc1cccc2c(C)cc(C)nc12", "hERG current change (%, negative = inhibition) at 10uM": -0.832},
      {"smiles": "Cc1ccc(-c2cc(-c3ccccc3)nc(NN)n2)cc1", "hERG current change (%, negative = inhibition) at 10uM": 8.23},
      {"smiles": "COc1ccc(-c2ccc3oc(-c4ccc(OC)cc4)c(C#CCO)c3c2)cc1", "hERG current change (%, negative = inhibition) at 10uM": 15.8},
      {"smiles": "COc1ccc(/C=C/C(=O)Nc2cc(C)nn2-c2nc3ccccc3[nH]2)cc1", "hERG current change (%, negative = inhibition) at 10uM": 7.01},
      {"smiles": "O=c1ccc(-c2nc3ccccc3n2Cc2ccc(Cl)cc2)c[nH]1", "hERG current change (%, negative = inhibition) at 10uM": -76},
      {"smiles": "O=C(COC(=O)C1CCN(c2ccc(C(F)(F)F)cn2)CC1)Nc1ccc(Cl)cn1", "hERG current change (%, negative = inhibition) at 10uM": 1.21},
      {"smiles": "CCOC(=O)C1CCN(C(=O)c2ccccc2NC(=O)c2ccc(Br)cc2)CC1", "hERG current change (%, negative = inhibition) at 10uM": -16.7},
      {"smiles": "Nc1ccc2c(c1)C(=O)N(CCCC(=O)O)C2=O", "hERG current change (%, negative = inhibition) at 10uM": 2.02},
      {"smiles": "Cc1ccc(N2CCN(C(=O)NC3CCCCC3)CC2C)cc1", "note": "(centres unmarked)", "hERG current change (%, negative = inhibition) at 10uM": 4.09},
      {"smiles": "O=C1CC2C(=O)NCCN2C(=NC(=O)c2ccccc2)N1", "note": "(centres unmarked)", "hERG current change (%, negative = inhibition) at 10uM": 22.9},
      {"smiles": "C/C(=N\\NP(=S)(c1ccccc1)c1ccccc1)c1ccc(O)cc1O", "hERG current change (%, negative = inhibition) at 10uM": 27.2},
      {"smiles": "CCN1CCN(c2ccc(S(=O)(=O)N3CCCCC3)cc2NC(=O)COc2ccc(F)cc2Cl)CC1", "hERG current change (%, negative = inhibition) at 10uM": -65.1},
      {"smiles": "COc1cccc(CNc2ccc(F)c(Cl)c2)c1O", "hERG current change (%, negative = inhibition) at 10uM": -26.5},
      {"smiles": "CCOC(=O)c1c(-c2ccccc2)oc2cc(Br)c(O)c(C=O)c12", "hERG current change (%, negative = inhibition) at 10uM": 16.6},
      {"smiles": "COc1ccc(/C=N/n2cnnc2SCc2ccc(OC)cc2)cc1", "hERG current change (%, negative = inhibition) at 10uM": 5.8},
      {"smiles": "Cc1ccc(S(=O)(=O)N2CCCC(NC(=O)N3CCN(c4ccccc4)CC3)C2)cc1", "note": "(centres unmarked)", "hERG current change (%, negative = inhibition) at 10uM": -33.6},
      {"smiles": "O=C1Nc2ccc(F)cc2C12Nc1ccccc1-c1nnc(SCc3ccccc3Cl)nc1O2", "note": "(centres unmarked)", "hERG current change (%, negative = inhibition) at 10uM": 1.27},
      {"smiles": "Cc1ccc(S(=O)(=O)N2CCCC2)cc1C(=O)NCc1ccccc1CN1CCCC1", "hERG current change (%, negative = inhibition) at 10uM": -52.3},
      {"smiles": "Cl.O=C(CCN1CCc2ccccc2C(O)(c2ccccc2)C1)c1ccc2c(c1)OCCO2", "note": "(centres unmarked)", "hERG current change (%, negative = inhibition) at 10uM": 0.662},
      {"smiles": "O=C(NC(=S)NCc1ccccc1)c1ccccc1F", "hERG current change (%, negative = inhibition) at 10uM": 3.19},
      {"smiles": "Cc1cc(C)c(C(=O)CSc2n[nH]c(-c3ccncc3)n2)c(C)c1", "hERG current change (%, negative = inhibition) at 10uM": 8.1},
      {"smiles": "O=c1cc(CN2CCCc3ccccc32)nc2sccn12", "hERG current change (%, negative = inhibition) at 10uM": -8.72},
      {"smiles": "CCCCCN(C(=O)CCC(=O)OCC(=O)N(CC)C1CCCCC1)c1c(N)n(CCCC)c(=O)[nH]c1=O", "hERG current change (%, negative = inhibition) at 10uM": 13.8},
      {"smiles": "CCOC(=O)CSC1=C(C#N)C(c2ccc(C)s2)CC(=O)N1", "note": "(centres unmarked)", "hERG current change (%, negative = inhibition) at 10uM": -3.86},
      {"smiles": "O=C(CSc1nc2ccccc2[nH]1)NCc1ccco1", "hERG current change (%, negative = inhibition) at 10uM": -1.16},
      {"smiles": "O=C(NCCCN1CCN(c2cccc(Cl)c2)CC1)c1cccc(N2CCCC2=O)c1", "hERG current change (%, negative = inhibition) at 10uM": -38},
      {"smiles": "COC(=O)Cc1ccc(NC(=S)N2CCN(c3ccc(OC)cc3)CC2)cc1", "hERG current change (%, negative = inhibition) at 10uM": 4.41},
      {"smiles": "C=C(C)C1CC=C(C)/C(=N/NC(=S)Nc2ccccc2)C1", "note": "(centres unmarked)", "hERG current change (%, negative = inhibition) at 10uM": 43},
      {"smiles": "CCOC(=O)CCCCC(=O)c1[nH]c(=O)[nH]c1CSc1nc(C)cc(C)n1", "hERG current change (%, negative = inhibition) at 10uM": -14.1},
      {"smiles": "CC(NC(=O)c1ccccc1F)c1nnc(SCC(=O)NC2CCCC2)n1C", "note": "(centres unmarked)", "hERG current change (%, negative = inhibition) at 10uM": 24.7},
      {"smiles": "O=C(c1cn(-c2ccccc2)nc1-c1ccccc1)N1CCOCC1", "hERG current change (%, negative = inhibition) at 10uM": -4.6},
      {"smiles": "COc1cc(C(CCN2CCN(c3ccccc3)CC2)c2c(OC)cc(OC)c3ccc(=O)oc23)cc(OC)c1OC", "note": "(centres unmarked)", "hERG current change (%, negative = inhibition) at 10uM": -8.86},
      {"smiles": "COc1cc(/C=C2/NC(=O)NC2=O)ccc1OCC(=O)Nc1ccc(F)cc1", "hERG current change (%, negative = inhibition) at 10uM": 33.2},
      {"smiles": "Cc1ccc2nc(NC(=O)C3CSC4(C)CCC(=O)N34)sc2c1", "note": "(centres unmarked)", "hERG current change (%, negative = inhibition) at 10uM": -12},
      {"smiles": "Clc1ccc(-c2[nH]ncc2N=Nc2ccccc2)cc1", "hERG current change (%, negative = inhibition) at 10uM": 15.3},
      {"smiles": "CCCCOC(=O)c1sc2nc(N3CCOCC3)c3c(c2c1N)CC(C)(C)OC3", "hERG current change (%, negative = inhibition) at 10uM": 9.29},
      {"smiles": "COCCNC(=O)C1CCC(CNS(=O)(=O)c2ccccc2)CC1", "note": "(centres unmarked)", "hERG current change (%, negative = inhibition) at 10uM": 5.83},
      {"smiles": "CCSc1ncnc2sc3c(c12)CCC3", "hERG current change (%, negative = inhibition) at 10uM": 15.2},
      {"smiles": "COc1cccc(CN2C(=O)c3ccccc3S2(=O)=O)c1", "hERG current change (%, negative = inhibition) at 10uM": -7.79},
      {"smiles": "O=C(NCCc1csc(-c2ccccc2)n1)c1ccccc1F", "hERG current change (%, negative = inhibition) at 10uM": -49.5},
      {"smiles": "COc1ccc(C2CC(=O)Nc3cc(C)c(C)cc32)c(OC)c1OC", "note": "(centres unmarked)", "hERG current change (%, negative = inhibition) at 10uM": 4.45},
      {"smiles": "COC(=O)C1=C(c2ccc(OC)c(OC)c2)C[C@@H]2CC[C@H]1N2C(=O)NCCNC(C)=O", "hERG current change (%, negative = inhibition) at 10uM": 4.98},
      {"smiles": "Cc1cc(C(=O)N(Cc2nnc(-c3ccc(Cl)cc3)o2)C(C)C)c2ccccc2n1", "hERG current change (%, negative = inhibition) at 10uM": -58.5},
      {"smiles": "Cc1oc(-c2ccccc2)cc1C(=O)Nc1ccccc1", "hERG current change (%, negative = inhibition) at 10uM": -8.72},
      {"smiles": "Cc1cc(=O)oc2c3c(cc(OCC(=O)N[C@@H](C)C(=O)O)c12)OC(C)(C)CC3", "hERG current change (%, negative = inhibition) at 10uM": 16.5},
      {"smiles": "Cn1cccc1/C=N/NC(=O)Cc1cccs1", "hERG current change (%, negative = inhibition) at 10uM": 6.58},
      {"smiles": "CN(C)S(=O)(=O)N1CCN(c2ccc([N+](=O)[O-])c(N3CCOCC3)c2)CC1", "hERG current change (%, negative = inhibition) at 10uM": -20.3},
      {"smiles": "Nc1nc(-c2ccccc2)c(-c2ccccc2)n1N", "hERG current change (%, negative = inhibition) at 10uM": -6.8}
    ]}
  ]
}
